Laboratory results as given in article PMC4336329 (PLoS ONE, 2015).
Screen size: about 310,000 compounds; about 14,000 (4.5%) showed an effect of 50% or more. Effects have a minus sign here. Some of the results follow.

Target: human ether-à-go-go-related gene (hERG) potassium channel (human, UniProt Q12809)
Experiment: primary screen, population patch clamp on CHO cells stably expressing hERG
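Also: peak tail current of the secondary pulse compared with the same well before compound.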

Chain of human ether-à-go-go-related gene (hERG) potassium channel (Q12809 whole entry, looked up): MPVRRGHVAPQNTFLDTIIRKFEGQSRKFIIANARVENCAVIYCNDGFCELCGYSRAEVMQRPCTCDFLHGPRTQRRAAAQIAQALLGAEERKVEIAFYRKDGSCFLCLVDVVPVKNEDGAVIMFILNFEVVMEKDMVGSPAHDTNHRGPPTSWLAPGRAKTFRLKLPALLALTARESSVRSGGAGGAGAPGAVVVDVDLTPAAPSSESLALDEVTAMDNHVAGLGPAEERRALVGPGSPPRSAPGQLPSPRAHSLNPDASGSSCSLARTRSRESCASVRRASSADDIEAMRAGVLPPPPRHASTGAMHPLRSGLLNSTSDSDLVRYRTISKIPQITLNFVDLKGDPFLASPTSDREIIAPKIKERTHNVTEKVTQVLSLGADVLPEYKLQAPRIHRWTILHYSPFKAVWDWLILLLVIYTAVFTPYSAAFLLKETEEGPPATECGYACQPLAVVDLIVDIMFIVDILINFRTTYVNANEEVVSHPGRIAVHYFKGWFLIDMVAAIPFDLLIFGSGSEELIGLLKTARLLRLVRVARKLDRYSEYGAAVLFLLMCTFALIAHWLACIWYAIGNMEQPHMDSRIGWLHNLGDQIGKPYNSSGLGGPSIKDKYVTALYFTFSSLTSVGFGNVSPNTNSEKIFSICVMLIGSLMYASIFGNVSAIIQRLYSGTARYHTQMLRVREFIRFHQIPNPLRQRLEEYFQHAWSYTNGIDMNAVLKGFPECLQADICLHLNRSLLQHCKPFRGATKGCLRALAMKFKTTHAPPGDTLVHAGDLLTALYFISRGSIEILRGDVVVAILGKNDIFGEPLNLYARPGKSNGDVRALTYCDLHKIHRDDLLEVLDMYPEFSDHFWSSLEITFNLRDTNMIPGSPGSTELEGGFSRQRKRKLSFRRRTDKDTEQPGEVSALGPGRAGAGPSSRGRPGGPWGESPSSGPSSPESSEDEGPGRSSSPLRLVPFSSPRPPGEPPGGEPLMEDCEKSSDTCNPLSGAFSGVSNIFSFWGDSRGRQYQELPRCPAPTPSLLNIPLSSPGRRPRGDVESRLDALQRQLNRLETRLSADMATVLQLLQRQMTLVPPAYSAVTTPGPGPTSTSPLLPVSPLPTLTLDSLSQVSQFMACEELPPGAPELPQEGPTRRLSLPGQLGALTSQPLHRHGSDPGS

| Compound | hERG current change (%, negative = inhibition) at 10uM [%] |
| --- | --- |
| COc1cc2c(cc1O)C(SC)=NC(C)(C)C2 | 6.7 |
| COc1cc(C(=O)NNC(=O)c2cc(S(=O)(=O)N(C)C)ccc2N2CCCC2)cc(OC)c1OC | 15.1 |
| COc1ccc2cc(CCNC(=O)C(C)C)c(=O)[nH]c2c1 | 13.4 |
| CC1CN(S(=O)(=O)c2cccc(C(=O)OCc3cc(=O)oc4cc(O)ccc34)c2)CC(C)O1 (stereo not drawn) | -26.3 |
| O=C(CN1CCCCC1)N1N=C(c2cccs2)CC1c1cccs1 (stereo not drawn) | -58.7 |
| COc1cc(C(=O)NC2CCN(Cc3ccccc3)CC2)cc(Cl)c1OC(C)C | -61.2 |
| CCOc1ccc(S(=O)(=O)Nc2ccc(C(=O)N3CC(C)OC(C)C3)cc2)cc1 (stereo not drawn) | 0.557 |
| CCn1cc(C(=O)NCc2ccccc2)c2ccccc21 | 20.3 |
| COC(=O)c1c(C)[nH]c(C(=O)C(C)OC(=O)C2CC2)c1C (stereo not drawn) | 13.8 |
| COc1ccc(C(=O)Nc2c(N)nc(SCC(=O)c3ccccc3)[nH]c2=O)cc1 | 12.4 |
| CC1=C(C(=O)OC2CCCCC2)C(c2cccs2)n2c(nc3ccccc32)N1 (stereo not drawn) | -1.21 |
| CC(C)[C@H](NC(=O)N1CC(=O)Nc2ccccc21)C(=O)N1CCC[C@H]1C(=O)O | 16.8 |
| CCOc1ccc2oc(C(=O)NNC(=O)c3ccccc3O)c(C)c2c1 | 9.29 |
| CN=C(SCC(=O)c1cccc(Cl)c1)c1c(O)n(C)c(=O)n(C)c1=O | -1.91 |
| C=CCOC(=O)C1=C(C)N=C2SCCC(=O)N2C1c1cccs1 (stereo not drawn) | 2.46 |
| COc1ccc(-c2cc3nc4n(c(=O)c3s2)CCC4)cc1 | 0.892 |
| O=C1N2CCSC2=NC1(Nc1nccs1)C(F)(F)F (stereo not drawn) | 5.22 |
| Cn1c(Cc2ccccc2)nnc1SCC(=O)N1CCN(c2ccccc2)CC1 | -14.5 |
| CCc1cc(=O)oc2cc(C)c3c(C)coc3c12 | 16.3 |
| COC(CNC(=O)c1ccc2c(=O)n(Cc3ccc4c(c3)OCO4)c(=S)[nH]c2c1)OC | 11.6 |
| Cc1ccc(NC(=O)CN(C)C(=O)CCSc2ccc(F)cc2)cc1 | -9.17 |
| O=C(CCN1C(=O)C2CCCCC2C1=O)N1CCN(S(=O)(=O)c2ccccc2)CC1 (stereo not drawn) | -1.24 |
| Clc1ccc2c(N3CCCC3)ccnc2c1 | -65.2 |

| Compound | hERG current change (%, negative = inhibition) at 10uM [%] |
| --- | --- |
| COc1ccc(C2CC(Cn3cc(C#N)c(=O)n(C)c3=O)ON2C)cc1 (stereo not drawn) | 8.43 |
| CCOc1ccc(NC(=O)CN(c2cc(C)cc(C)c2)S(=O)(=O)c2c(C)noc2C)cc1 | 0.745 |
| Cc1ccc(C2N3CCCN23)cc1 (stereo not drawn) | 11.9 |
| Cc1ccc(CN2CCSCC2)cc1 | 17.4 |
| NS(=O)(=O)c1ccc(CCn2c(=S)[nH]c3ccc(F)cc3c2=O)cc1 | 26.3 |
| ONC=Nc1cccc2nonc12 | 10.8 |
| Cn1c(O)c(N=NC(=O)Cn2ccc(C(F)(F)F)n2)c2ccccc21 | 14.7 |
| CCc1cccc(NC(=O)COc2ccccc2)c1 | -8.01 |
| N#CCCn1cc(C(=O)Nc2ccc([N+](=O)[O-])cc2)c(-c2ccccc2)n1 | -80.1 |
| CCOC(=O)N1CCN(C(=O)CCc2ccc(S(=O)(=O)NCC(C)C)cc2)CC1 | -19.8 |
| COC(=O)C1=C(C)OC(N)=C(C#N)C1c1ccccc1 (stereo not drawn) | 14.9 |
| FC(F)(F)c1cc(Oc2ccccc2)ncc1-c1nnc(-c2ccccc2Cl)o1 | 0.303 |
| Cc1cc(C(F)(F)F)nc(SCCN2CCOCC2)c1C#N | 3.64 |
| O=S(=O)(NCC(c1cccnc1)N1CCN(c2ccccc2)CC1)c1cc(F)ccc1F (stereo not drawn) | -62.8 |
| Cn1c(SCC(=O)c2c(N)n(C)c(=O)n(C)c2=O)nnc1-c1ccccc1 | -10.1 |
| O=C(Nc1ccccc1)N1CCSCC1 | -1.89 |
| O=C(c1ccc2c3n(nc2c1)-c1ccccc1CO3)N1CCOCC1 | -8.48 |
| O=C(CSc1nc2ccccc2[nH]1)N/N=C/C=C\c1ccccc1[N+](=O)[O-] | -9.37 |
| Cc1nc(C)c(-c2ccn(C(=O)NC(C)C)n2)s1 | 10.5 |
| Cc1ccccc1Cc1n[nH]c(=S)n1N | 16.6 |
| COc1ccc(OCC(O)CNC(=O)c2ccc(C)cc2)cc1 (stereo not drawn) | 3.31 |
| O=C(NNC(=O)C1CC(c2cccs2)=NO1)Nc1ccccc1 (stereo not drawn) | 4.22 |
| CCOc1ccccc1N1CCN(C(=O)c2ccc(NS(=O)(=O)c3ccc4[nH]c(=O)[nH]c4c3)cc2)CC1 | 2.58 |

| Compound | hERG current change (%, negative = inhibition) at 10uM [%] |
| --- | --- |
| O=C(/C=C/c1ccco1)Nc1cccc(C(=O)Nc2ccccc2C(=O)O)c1 | 3.39 |
| O=C(CSc1cccc[n+]1[O-])NC(=O)c1ccc(OC(F)F)cc1 | -2.15 |
| O=C(CN1CCOc2ccccc21)NC1CC1 | -4.43 |
| CC(CCc1ccccc1)NC(=O)/C=C/c1ccccc1 (stereo not drawn) | -31.2 |
| CSc1nc(N)c(C(=O)Nc2ccc([N+](=O)[O-])cc2)s1 | -12.3 |
| O=C(O)C1CCCCC1C(=O)NCCc1ccc(F)cc1 (stereo not drawn) | 13.8 |
| C/C=C/C=C/C(=O)[C@@H]1[C@@H]([C@]2(C)OC(=O)C(C)=C2O)[C@H]2/C(=C(O)/C=C/C=C/C)C(=O)[C@]1(C)C(=O)C2(C)O (stereo partly drawn) | 1.28 |
| CC1=CCC2C(=O)N(c3ccccc3OC(=O)c3ccccc3F)C(=O)C2C1 (stereo not drawn) | -9.24 |
| CC(O)Cc1cn(CC(=O)N2CCNCC2)nn1.Cl (stereo not drawn) | 11.7 |
| CC(=O)Nc1nnc(SCc2ccc(F)cc2)s1 | 10.4 |
| Cc1ccc(/C=C2\SC(=S)N(CCCC(=O)Nc3nccs3)C2=O)cc1 | 15.7 |
| CCOc1ccccc1CNC(=O)c1nn(C)c2c1CS(=O)(=O)c1ccccc1-2 | -13.4 |
| Cc1cccc(-c2cc(=O)c(C(=O)O)cn2-c2ccc(F)cc2F)c1 | 3.55 |
| Fc1ccc(OCc2cc(-c3ccccc3)no2)cc1 | 27.2 |
| CCN(C(=O)COC(=O)CSc1ccc(F)cc1)c1c(N)n(Cc2ccccc2)c(=O)[nH]c1=O | 10.9 |
| N#Cc1cccc(C#N)c1Oc1ccc(N)cc1 | 4.37 |
| CCOc1ccc(CCNC(=O)COC(=O)CSc2ccccc2C)cc1OCC | -7.76 |
| COc1ccc(NC(=S)NCCSc2ccc(Cl)cc2)c(OC)c1 | 0.861 |
| O=C(Nc1cccc(C(F)(F)F)c1)/C(=C/c1ccco1)NC(=O)c1cccs1 | -28.4 |
| Cc1ccc(S(=O)(=O)N(C)C)cc1NC(=O)C(C)OC(=O)c1ccc2c(c1)OCCO2 (stereo not drawn) | 0.0881 |
| N#C/C(=C/c1cc(Br)cs1)C(=O)NCC1CCCO1 (stereo not drawn) | -14.8 |
| CC1=C(C(=O)OCc2ccc([N+](=O)[O-])cc2)N2C(=O)C(NC(=O)Cc3ccccc3)C2SC1 (stereo not drawn) | 17.9 |
| CCOc1ccc2nc(SCC)[nH]c2c1.Cl | 2.89 |

| Compound | hERG current change (%, negative = inhibition) at 10uM [%] |
| --- | --- |
| CN1CCN(c2ccc(S(=O)(=O)N3CCCCC3)cc2NC(=O)c2ccc3ccccc3c2)CC1 | -40.4 |
| CCC12CN3CC(CC)(CN(C1)C3c1ccc([N+](=O)[O-])o1)C2=O (stereo not drawn) | -8.69 |
| CC(C)(C)OC(=O)NCCCC1=CC2=CC(=O)C(C)(OC(=O)c3ccc(Cl)nc3)C(=O)C2=CO1 (stereo not drawn) | 4.94 |
| Cn1cccc1C(C#N)c1ccccc1C#N (stereo not drawn) | 9.27 |
| COc1ccc(Cn2c(SCC#N)nc3ccc(N4CCOCC4)cc3c2=O)cc1 | 8.96 |
| CCn1nnnc1NC(=O)c1cccc(OC)c1 | 12.3 |
| O=C(O)COc1ccc(Br)cc1/C=N\Nc1ccccn1 | 15.2 |
| CCOC(=O)CN1C(=O)C(CC)Oc2ccccc21 (stereo not drawn) | -4.1 |
| COc1ccc(Cc2nnc(SCC(=O)Nc3ccc(C)cc3C)[nH]c2=O)cc1 | -16.8 |
| Cc1oc2cc(O)ccc2c(=O)c1-c1ccccc1 | -4.39 |
| O=C(c1ccco1)N1CCN(Cc2cc(=O)c(OCc3cccc(Cl)c3)co2)CC1 | -74.7 |
| NC(=O)C(c1ccc(Cl)cc1)c1ccc(Sc2ccc(Cl)cc2)nn1 (stereo not drawn) | -9.96 |
| O=C(CNCc1ccccc1)Nc1ccc(F)cc1 | -4.2 |
| O=C(O)c1ccc(CSc2nc3ccccc3c(=O)n2-c2ccccc2)cc1 | 5.27 |
| CCOC(=O)c1nn(-c2ccc(F)cc2)c(=O)c2c(N)scc12 | 6.57 |
| O=C(CSc1nnc(COc2ccccc2)o1)N1CCCCC1 | 16.9 |
| CC1CCN(C(=O)C2CCN(CCCc3ccccc3)CC2)CC1.O=C(O)C(=O)O | -62.3 |
| Cc1nnc(N/N=C/c2ccco2)n1N | 10.3 |
| O=C(Cn1ncc2c(=O)oc3ccccc3c21)N(Cc1ccco1)C1CCCCC1 | -42.7 |
| COc1ccc(NC(=O)CSc2ccccn2)cc1OC | 11.9 |
| CC(NC(=O)c1ccc(F)cc1)C(=O)NC1=NCCS1 (stereo not drawn) | 24.2 |
